Experimental data taken from PubChem BioAssay AID504845 (National Center for Advancing Translational Sciences (NCATS), 2011).
Where “and” joins values, the source holds several entries; their conditions need not be identical. Identical values can stand only once. Hit rate of the full screen: of about 390,000 compounds, about 150 (0.038%) were called active. This list was built around the results that the source calls inconclusive (neither active nor inactive); the mix of calls is not that of the screen. The call rests on the fitted dose curve; in most records, active means well fitted inhibition curve with a large enough effect; inconclusive means small, poorly fitted or top-dose-only effect; inactive means no such curve, though single readings can be large or run the other way. Potencies of inconclusive entries are doubtful fits and often do not repeat.

molecular target: Regulator of G-protein signaling 4 (Homo sapiens) (UniProt P49798); experiment: Inhibitors of Regulator of G Protein Signaling (RGS) 4: qHTS; details: Transcreener GDP fluorescence polarization, RGS4-accelerated GTP hydrolysis; series mostly up to 114 µM; further: nearly all actives have a fitted effect of over 75% in size
Procedure, shortened: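 MLSMR compounds (23 nl, pin-transferred) preincubated 10 min at room temperature with a 500nM (2x) first reagent, then RGS4 at 900nM (2x) plus Transcreener GDP mix added; fluorescence polarization (620/688 nm) read before and after 90 min at 30 °C.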
Potency means the concentration at half of the fitted maximal effect; tags describe the fitted curve by direction and shape.

Chain of UniProt P49798 (P49798 whole entry, looked up): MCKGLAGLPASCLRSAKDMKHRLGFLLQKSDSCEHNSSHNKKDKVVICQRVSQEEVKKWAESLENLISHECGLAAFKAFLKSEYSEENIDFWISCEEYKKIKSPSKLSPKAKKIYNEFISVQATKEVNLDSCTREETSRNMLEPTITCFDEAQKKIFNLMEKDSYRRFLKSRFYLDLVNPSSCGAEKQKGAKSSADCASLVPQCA

Compound	Potency
CCCCC(=O)N(Cc1ccc2c(c1)OCO2)Cc1nc2ccccc2c(=O)[nH]1	inconclusive: 17.8 µM [inhibitor, partial curve, poor fit]
Cc1ccc(C)c(S(=O)(=O)Nc2ccc(O)c(C(=O)O)c2)c1	inconclusive: 44.7 µM [inhibitor, partial curve, poor fit]
O=C(c1ccc(C(F)(F)F)cc1)C1CCCN(C(=O)c2cnccn2)C1 (centres undefined)	inconclusive: 89.1 µM [inhibitor, single point]
CN1/C(=C\C=C2/C(=O)Oc3ccccc3C2=O)C(C)(C)c2ccccc21	inconclusive: 89.1 µM [inhibitor, single point]
Cc1nc(N)sc1-c1csc(Nc2ccc(Cl)cn2)n1	inconclusive: 31.6 µM [inhibitor, full curve, poor fit]
COc1cc(NC(=O)c2cccs2)c(C(=O)OCC(=O)NC(=O)NCc2ccccc2)cc1OC	inactive
COc1ccccc1N1CCN(C(CNC(=O)C2CCCCC2)c2cccnc2)CC1 (centres undefined)	inactive
CCOC(=O)/C=C1\CC(C(=O)OCC)Oc2c(OC)cccc21 (centres undefined)	inconclusive: 50.1 µM [inhibitor, partial curve, poor fit]
CCCn1nc(C(=O)OCC(=O)c2ccc3c(c2)NC(=O)CO3)c2ccccc2c1=O	inconclusive: 39.8 µM [inhibitor, partial curve, poor fit]
C=CC[C@H](CC(=O)NCCO)C(=O)N[C@H](COC(=O)[C@@H](CC=C)Cc1ccc(F)cc1)Cc1ccccc1	inactive
CC(C)(C)c1ccc(C(=O)NC(=S)N2CCOCC2)cc1	inactive
CC(C)(C)c1ccc(N2C(=O)Cc3c2nc(N)c(C#N)c3N)cc1	inconclusive: 89.1 µM [inhibitor, single point]
CC(=O)NC1C(=O)N(CCc2ccccc2)c2ccc(Br)cc21 (centres undefined)	inconclusive: 56.2 µM [inhibitor, partial curve, poor fit]
CCOC(=O)c1c(NC(=O)CSc2nnc(-c3ccccc3)o2)sc(C(C)=O)c1C	inconclusive: 79.4 µM [inhibitor, partial curve, poor fit]
Cc1[nH]c2ccccc2c1C(c1ccncc1)N1CCN(c2ccccn2)CC1 (centres undefined)	inconclusive: 89.1 µM [inhibitor, single point]
COc1ccc(N=C2S/C(=C\c3ccc(OC(C)C(=O)O)c(OC)c3)C(=O)N2CCc2c[nH]c3ccccc23)cc1 (centres undefined)	inconclusive: 50.1 µM [inhibitor, partial curve, poor fit]
CN(C)c1ccc(/C=C/c2ccc3c4ccccc4ccc3[n+]2-c2ccccc2)cc1	inconclusive: 50.1 µM [inhibitor, partial curve, poor fit] and inconclusive: 56.2 µM [inhibitor, partial curve, poor fit]
CN1CCc2c(sc(/N=C/c3cccs3)c2C(N)=O)C1	inconclusive: 70.8 µM [inhibitor, partial curve, poor fit]
COC(=O)c1[nH]c2ccccc2c1Sc1ccccc1	inconclusive: 89.1 µM [inhibitor, partial curve, poor fit]
Nc1ncnc2c1ncn2[C@@H]1O[C@H](COP(=O)(O)OP(=O)(O)O)[C@@H](O)[C@H]1O	inconclusive: 1.19 µM [inhibitor, partial curve, poor fit]

Compound	Potency
CCn1c2ccccc2c2cc(C3C(C#N)=C(N)Oc4n[nH]c(COC)c43)ccc21 (centres undefined)	inconclusive: 20 µM [inhibitor, full curve, poor fit]
N#CCC(=O)Nc1ccc(C(=O)OCC(=O)NC(=O)Nc2ccc3c(c2)OCCO3)cc1	inconclusive: 17.8 µM [inhibitor, full curve, poor fit]
O=S(=O)(/C(=C\c1ccc(C(F)(F)F)cc1)c1nc2ccccc2[nH]1)c1ccccc1	inconclusive: 17.8 µM [inhibitor, full curve, poor fit]
COc1ccc(-n2c(C)n[nH]c2=O)cc1	inactive
NC(=S)NN=C1CCCCCCCCC1	inconclusive: 10 µM [inhibitor, full curve, poor fit]
COC(=O)c1sccc1NC(=O)c1ccc(C)s1	inconclusive: 79.4 µM [inhibitor, single point]
O=C1c2ccccc2C(=O)N1c1cccc(N2C(=O)c3ccccc3C2=O)n1	inactive
COc1ccc(-c2nc3ccccc3c(=O)n2NC(=S)N(C)C)cc1	inconclusive: 100 µM [inhibitor, partial curve, poor fit]
CCc1ccc2c(-c3cccc(Cl)c3)nc(=O)n(CC)c2n1	inconclusive: 0.0751 µM [inhibitor, full curve, poor fit]
COc1ccc(NC(=O)/C=C/c2cccc(F)c2)cn1	inactive
COCCCNC(=S)NNC(=S)Nc1ccc(F)cc1F	inconclusive: 50.1 µM [inhibitor, partial curve, poor fit]
Cc1ccc(S(=O)(=O)Nc2cccc(Oc3cnccn3)c2)cc1	inconclusive: 89.1 µM [inhibitor, single point]
O=C(CSc1nc2ccccc2c(=O)[nH]1)c1ccc(O)c(O)c1	inactive
Cc1ccc(NC(=O)[C@H](NC(=O)[C@@H]2Cc3ccccc3CN2)c2ccccc2)cc1C	inactive
CCSc1nc2c(c(=O)[nH]c(=O)n2C)n1CC(O)COc1ccccc1C (centres undefined)	inconclusive: 50.1 µM [inhibitor, partial curve, poor fit]
O=C(Nc1nc(-c2cccs2)cs1)C1CC(=O)N(c2ccc3c(c2)OCCO3)C1 (centres undefined)	inactive
Cc1c(N=N/C(C(=O)Nc2ccccc2)=C(/O)c2ccccc2)c(=O)n(-c2ccccc2)n1C	inactive
CC(=O)N(C(C)=O)N1C(=O)/C(=C/c2ccc(Cl)cc2)SC1=S	inconclusive: 17.8 µM [inhibitor, full curve, poor fit]
CC(C)ON([C@@H](C(=O)NO)C(C)C)S(=O)(=O)c1ccc(-c2ccccc2)cc1	inconclusive: 37.7 µM [inhibitor, single point]
